The full ranking holds about 33,000 sequences; the median of “E-score (-0.5 to 0.5)” is about -0.016, and the highest 2% start at about 0.31. The list shows a part of the results.
What follows are sequences tested against Cst6 (UniProt P40535) (assay: PBM E-score (8-mer binding enrichment) (E-score (-0.5 to 0.5)); higher = stronger / more preferred TF binding; most listed sequences are background and not binding sites). Settings: protein concentration: 200 nM; construct: GST-DNA-binding domain.
Summary of the method: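 The E-score, a modified Wilcoxon-Mann-Whitney statistic, was computed by the Universal PBM Analysis Suite for every ungapped eight-base word pooled with its reverse complement. Scans behind it were normalised with masliner after bound GST-tagged yeast transcription factors were detected with fluorescent anti-GST. The proteins, at about 100-200 nM, had been applied to universal all-10-mer Agilent arrays made double-stranded by primer extension.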

In order of falling “PBM E-score” value:
1. CAGATGAC  0.383
2. AACGGCAT  0.346
3. GTCATAAA  0.331
4. TATTTAAA  0.308
5. AGTAATAA  0.302
6. GACGATGA  0.301
7. GCAATGAC  0.3
8. GACGTTTA  0.273
9. AAGTGATG  0.273
10. ATGTTACG  0.268
11. ACGTCGCG  0.259
12. TGTCACAA  0.254
13. AGAAAAAA  0.249
14. CAAATATA  0.225
15. ATAAAGTA  0.219
16. GACGCTAC  0.214
17. GGTATTAC  0.21
18. AAATCACG  0.203
19. AACTCGTC  0.201
20. AGTGTTGA  0.197
21. CCATTTAA  0.195
22. AGCGGTGA  0.192
23. GTAAGACA  0.191
24. AAAACATT  0.165
25. GATCAACA  0.165
26. GTGATATA  0.159
27. ACTCAAAC  0.158
28. ACTTCTCG  0.155
29. GATTTCGA  0.134
30. ACTCGCAA  0.129
31. AGGAATTG  0.129
32. CTTACCAA  0.128
33. GTTTGAGA  0.126
34. TGTGTCAA  0.123
35. TAAGCAAA  0.117
36. ACGAAACC  0.117
37. GAAATGCC  0.116
38. ATGAAGCC  0.114
39. TCTTCACA  0.113
40. ATCCATTC  0.11
41. CCCGCGGC  0.109
42. AGGATAAT  0.103
43. CTTTACTC  0.103
44. ATGCAAGA  0.102
45. GTACCGCA  0.0944
46. AATTGCAC  0.0926
47. ACTAACCT  0.0919
48. AGGATGTA  0.0787
49. AATGAATA  0.0769
50. CCGCGTTC  0.0757
51. ATAGAAGC  0.0756
52. CGCATGCA  0.0755
53. GAAAAATC  0.0723
54. GCACCGAA  0.0718
55. ATTAACGG  0.0695
56. GACGATCA  0.0657
57. ATCCTTGG  0.0653
58. ACAGGTGA  0.0585
59. CATACATG  0.0541
60. AGGTAGTA  0.0537
61. AACAATTG  0.0517
62. AGGCCGTA  0.0502
63. ACGGAAAG  0.0491
64. CCAACACG  0.0423
65. CCATTAAG  0.0421
66. CGTACTGC  0.0389
67. CTGTCTAC  0.0335
68. GGCCTCAA  0.033
69. AAAAGCTA  0.0299
70. AAACAAGG  0.0197
71. ACGCAGCG  0.0172
72. ATCCGCGC  0.0167
73. GACGTGCC  0.014
74. CAGCTGAA  0.0118
75. TCCTTAAA  0.00906
76. CTACTAGC  0.00769
77. ACAATCTC  0.00613
78. GTGTCAGA  -0.0004
79. GACCAATC  -0.00213
80. CAGTACAC  -0.00752
81. AAAATCGG  -0.00802
82. AGTTCCCA  -0.00984
83. AATAGTGC  -0.0125
84. CATATCGG  -0.0127
85. AACATCTT  -0.0135
86. CTACATCC  -0.0142
87. GGGCGCGA  -0.0149
88. ATCTCCGA  -0.0182
89. AATTCGAG  -0.0256
90. AAAGCGAA  -0.0259
91. CGTGAGAC  -0.0301
92. CAGGTCGA  -0.0317
93. TCCCACAA  -0.0349
94. ACTGCTCT  -0.0408
95. AGCATCGA  -0.0476
96. ACAACAGT  -0.0491
97. GTTGAGAA  -0.0503
98. AACTCACC  -0.0518
99. CCCCAACC  -0.0534
100. AGTTCCAA  -0.0607
101. CATAAGTC  -0.0617
102. TGTGCGAA  -0.0655
103. CACGAGCA  -0.0684
104. CAGTACCG  -0.071
105. AATCTCGG  -0.0737
106. AACACTGG  -0.0752
107. TCCCTGCA  -0.0815
108. CAGGACGC  -0.0827
109. GATGCTGA  -0.085
110. GCAACGGA  -0.0853
111. ACTAAGAG  -0.0881
112. AAACCTGG  -0.0966
113. AAGTCTTG  -0.0973
114. GTACTGCA  -0.0985
115. ACCTGTAT  -0.099
116. GGGTTTTA  -0.104
117. ACTGAGTC  -0.108
118. CCGAGTAG  -0.111
119. CGCACAAC  -0.114
120. TCCGCAGA  -0.116
121. CGGGGCTA  -0.118
122. CACTCAGC  -0.119
123. ATGGCCTA  -0.123
124. CAGAACAG  -0.123
125. ATCCCGGG  -0.127
126. GGACGTCC  -0.128
127. GGCCGCGA  -0.141
128. AATACCCA  -0.141
129. ACTCTTCC  -0.143
130. ACCAGGCG  -0.144
131. CTCAGCGC  -0.151
132. GACCTCTA  -0.153
133. AAGTTGAG  -0.154
134. AGAAAGAC  -0.157
135. AAGACTGT  -0.162
136. CTATACCC  -0.169
137. GCCCGCGA  -0.173
138. CTGCTCCC  -0.174
139. ACGACCCC  -0.179
140. CATTGGGG  -0.18
141. CTCCAAGC  -0.182
142. AGCCCCGG  -0.184
143. GACTTACC  -0.19
144. CGTAGAAC  -0.19
145. AGAGGAAG  -0.191
146. CACCTAGC  -0.191
147. GGATTCGA  -0.204
148. GAAGTCTA  -0.208
149. CAGCCTCC  -0.21
150. AGCGGTAG  -0.21
151. ACGCCCGG  -0.211
152. CTTCTCCA  -0.211
153. CACCCTCA  -0.212
154. AGTACCCA  -0.222
155. CCCGGGAG  -0.236
156. CCCTCAGC  -0.241
157. GGGGGGTA  -0.244
158. CAGGGTTC  -0.244
159. AGGGGCAA  -0.246
160. GGGACCGA  -0.258
161. CGGACGAG  -0.263
162. GTCCTGGA  -0.265
163. CGCGATGC  -0.266
164. CAGGGGGC  -0.269
165. CAGCCCGA  -0.29
166. CGGTAGTC  -0.304
167. AGGGTCCG  -0.308
168. GCCTGTCC  -0.331
169. AGTCTAGG  -0.346
170. ACTGGCCG  -0.356
171. GGCCCCCA  -0.382
172. AGGGGGTC  -0.385

From the supplement of paper PMC3334620
